Out of some 370,000 compounds screened, about 150 (0.041%) were called active. Inconclusive means that the source gave no clear call. Such entries were picked first, then a sample of the others. The call rests on the fitted dose curve; in most records, active means well fitted inhibition curve with a large enough effect; inconclusive means small, poorly fitted or top-dose-only effect; inactive means flat fitted curve, though single readings scatter. No potency is given beside an inconclusive call; the fits are too rough.
What follows are compounds tested against Beta-lactamase (Escherichia coli (strain K12)) (UniProt P00811) (assay: qHTS Inhibitors of AmpC Beta-Lactamase (assay with detergent)). Conditions: AmpC hydrolysis of nitrocefin, absorbance 480 nm, 0.01% Triton; activity change, negative = inhibition: at 114 µM (top of the series).
Summary of the method: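 AmpC (5.3 nM in the dispensed reagent) in 20 mM phosphate pH 7.0 with 0.01% (detergent screen) or 0.0001% Triton X-100 was preincubated with compounds for 15 min at room temperature. Nitrocefin was then added from an 800 uM solution, and hydrolysis was followed at 480 nm.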
Further: nearly all actives have a fitted effect of over 25% in size.
Potency means the concentration at half of the fitted maximal effect; tags describe the fitted curve by direction and shape.
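Wherever activity change, negative = inhibition is given: 0% = no-compound wells and -100% = no-enzyme wells.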

Chain of UniProt P00811 (P00811 whole entry, looked up): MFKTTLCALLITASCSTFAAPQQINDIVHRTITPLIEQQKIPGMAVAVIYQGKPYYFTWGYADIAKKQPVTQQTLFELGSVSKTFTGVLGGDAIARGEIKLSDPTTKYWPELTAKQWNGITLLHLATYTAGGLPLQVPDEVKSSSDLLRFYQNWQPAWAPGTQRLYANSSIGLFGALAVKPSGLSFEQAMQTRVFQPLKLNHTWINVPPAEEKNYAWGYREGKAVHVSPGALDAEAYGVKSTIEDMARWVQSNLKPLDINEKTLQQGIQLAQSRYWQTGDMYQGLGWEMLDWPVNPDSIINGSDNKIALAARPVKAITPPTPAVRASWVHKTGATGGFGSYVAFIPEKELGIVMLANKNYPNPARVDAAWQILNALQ

Compound | activity change, negative = inhibition | Potency
Cn1cc(CN(Cc2ccccc2)C[C@@H]2CCC(=O)N2)c(-c2ccccc2F)n1 | inactive: 0.738% | 
Cc1ccc(S(=O)(=O)N2CCCC2)cc1C(=O)NCCOc1ccccc1 |  | inconclusive [inhibitor, full curve, poor fit]
COC(CNC(=O)CSCc1nc(-c2ccc(SC)cc2)oc1C)OC | inactive: 5.73% | 
O=C(c1cc([N+](=O)[O-])ccc1Cl)N1c2ccccc2Sc2ccccc21 |  | inconclusive [inhibitor, full curve, poor fit]
COc1ccc(S(=O)(=O)N(C)c2ccc(C(=O)N3CCOCC3)cc2)cc1 |  | inconclusive [inhibitor, partial curve]
O=C(c1cc(-c2ccccn2)nc2c(Cl)cccc12)N1CCN(C(=O)C2CCCO2)CC1 (stereo not drawn) |  | inconclusive [inhibitor, full curve, poor fit]
Cn1c(C(=O)N2CCCC(C(=O)NCCCc3ccccc3)C2)cc2sccc21 (stereo not drawn) | inactive: -7.02% | 
O=C(c1cc(-c2cccc(O)c2)on1)N1CCc2ccccc2C1 |  | inconclusive [inhibitor, full curve, poor fit]
CC1CN(C(=O)/C(=C/c2ccco2)NC(=O)c2ccccc2)CC(C)O1 (stereo not drawn) |  | inconclusive [inhibitor, full curve, poor fit]
Cc1ccc(C(=O)N2CCCC(C(=O)Nc3cccc(-c4ccc(F)cc4)c3)C2)cn1 (stereo not drawn) |  | inconclusive [inhibitor, full curve, poor fit]
Cn1c(NC(=O)c2ccccc2Br)cc(=O)n(C)c1=O |  | inconclusive [inhibitor, partial curve, poor fit]
CCS(=O)(=O)N1CCC(C(=O)NC2CCCCCCC2)CC1 | inactive: 0.954% | 
Cc1ccc(-c2noc(-c3ccoc3C)n2)cc1 | inactive: 1.07% | 
O=C1C(c2ccccc2)=[N+]([O-])c2ccccc21 |  | inconclusive [inhibitor, single point]
COc1ccc(OC(C)C(=O)N2CCC(C)CC2)cc1 (stereo not drawn) |  | inconclusive [inhibitor, full curve, poor fit]
O=C1CC2CS(=O)(=O)CC2N1C1CCCCC1 (stereo not drawn) |  | inconclusive [inhibitor, partial curve, poor fit]
O=C(c1c(F)cccc1F)N1CCC(O)(c2cccnc2)CC1 |  | inconclusive [inhibitor, full curve]
COC(=O)[C@@H]1[C@@H](C(=O)OC)C2(c3ccccc3-c3ccccc32)N(c2ccc(Cl)cc2)N1C#N |  | inconclusive [inhibitor, partial curve, poor fit]
Cc1ccc2nc(C)/c(=N\O)c(C)nc2c1 |  | inconclusive [inhibitor, full curve, poor fit]
NC(=O)c1cccnc1Nc1ccccc1F | inactive: -13.3% | 
COc1ccccc1NC(=O)Cc1cccc2ccccc12 |  | inconclusive [inhibitor, full curve, poor fit]
Cc1ccccc1OCC(=O)N/N=C/c1ccc(N2CCOCC2)o1 | inactive: -5.63% | 
O=C(C1CC1)N1CCN=C1SCc1cccc(F)c1 |  | inconclusive [inhibitor, full curve, poor fit]

Compound | activity change, negative = inhibition | Potency
O=c1c2oc3ccccc3c2n(Cc2ccccc2)c(=O)n1Cc1ccc2c(c1)OCO2 |  | inconclusive [inhibitor, single point]
Cc1cnc(C)c(N2CCN(C(=O)C3CCC(=O)N(CCc4cccc(F)c4)C3)CC2)n1 (stereo not drawn) |  | inconclusive [inhibitor, partial curve]
CCOc1ccc(-n2c(-c3ccc(OC)cc3)c[n+]3c2CCCCC3)cc1 |  | inconclusive [inhibitor, partial curve, poor fit]
CC(C)CNC(=O)c1ccc(NC(=O)c2cccs2)cc1 | inactive: 2.15% | 
CCOC(=O)CNC(=O)CNC(=O)c1nn(-c2ccc(OC)c(Cl)c2)c(=O)c2ccccc12 | inactive: 1.17% | 
CN(C)S(=O)(=O)c1cccc2nsnc12 |  | inconclusive [inhibitor, full curve, poor fit]
CC(Oc1ccc(Br)cc1)C(=O)NC1CCN(Cc2ccccc2)CC1 (stereo not drawn) |  | inconclusive [inhibitor, full curve]
COCCCN1CCc2[nH]c(=S)[nH]c(=O)c2C1 |  | inconclusive [inhibitor, full curve]
CCc1cc(=O)oc2c(C)c(O)c(CN(C)C)cc12 |  | inconclusive [inhibitor, full curve]
CC(c1ccco1)N(C(=O)Nc1ccc(Cl)cc1)c1ccccn1 (stereo not drawn) |  | inconclusive [inhibitor, single point]
O=C(Nc1ccc(F)c([N+](=O)[O-])c1)c1ccc2c(c1)OCCO2 | inactive: -0.453% | 
O=c1cc(CSc2ccccc2)[nH]c(=S)[nH]1 |  | inconclusive [inhibitor, partial curve]
Cc1ccc(OCC(=O)Nc2cccc(-c3nnc(-c4ccccc4)o3)c2)cc1 |  | inconclusive [inhibitor, full curve]
Cc1csc(=O)n1CC(=O)OCC(=O)c1ccc(Br)cc1 |  | inconclusive [inhibitor, partial curve, poor fit]
CC(C)(C)OC(=O)N1CCCN(C(=O)Nc2ccccc2)CC1 |  | inconclusive [inhibitor, full curve]
C=CC(=O)N1C/C=C\C(c2ccc(OC)cc2)N(Cc2ccc(F)cc2)C(=O)C1 (stereo not drawn) | inactive: -5.68% | 
Cc1cc(S(=O)(=O)N2CCOCC2)ccc1OCC(=O)Nc1ccc(F)cc1 |  | inconclusive [inhibitor, partial curve, poor fit]
CCC(C)(C)C1CCc2[nH]nc(C(=O)NN)c2C1 (stereo not drawn) | inactive: 1.06% | 
O=C(CSc1ncnc2ccccc12)NCc1ccco1 |  | inconclusive [inhibitor, single point]
COc1ccc(C2=NN3C(C2)c2ccccc2OC32C(=O)N(C)c3ccccc32)cc1 (stereo not drawn) | inactive: 1.34% | 
O=C(Nc1ccccc1Cc1ccccc1)C1CC(=O)N(c2ccc3c(c2)OCCO3)C1 (stereo not drawn) |  | inconclusive [inhibitor, partial curve]
Cc1ccc(-n2sc3ccccc3c2=O)cc1 |  | inconclusive [inhibitor, partial curve]
Cc1[nH]c(=O)[nH]c(=O)c1S(=O)(=O)N1CCCC(C(=O)NCc2ccc3c(c2)OCO3)C1 (stereo not drawn) |  | inconclusive [inhibitor, full curve, poor fit]

Compound | activity change, negative = inhibition | Potency
O=C(NCC#CCOCc1ccccc1)c1ccccc1 | inactive: -2.63% | 
COc1cccc(NC(=O)CN(C)C(=O)CSC(=S)N2CCCC2)c1 |  | inconclusive [inhibitor, full curve]
COc1ccc(NC(=S)N(CCCN2CCCC(C)C2)Cc2cccs2)cc1 (stereo not drawn) |  | inconclusive [inhibitor, partial curve]
CCOc1ccccc1NC(=O)COc1coc(CN2CCc3ccccc32)cc1=O | inactive: -13.8% | 
Cc1ccc(S(=O)(=O)N(C)c2ccc(OCC(=O)N3CCCC(C(F)(F)F)C3)cc2)cc1 (stereo not drawn) |  | inconclusive [inhibitor, full curve, poor fit]
Cn1c(=O)n(C)c2cc(NC(=O)c3cccc([N+](=O)[O-])c3)c(Br)cc21 |  | inconclusive [inhibitor, single point]
O=C(COc1ccc(C(=S)N2CCCC2)cc1)Nc1ccc(F)cc1 |  | inconclusive [inhibitor, partial curve, poor fit]
CCC(=O)c1ccc(OCC(=O)OCC(=O)NCCCc2ccccc2)cc1 |  | inconclusive [inhibitor, partial curve, poor fit]
COc1cccc(CNCc2ccccc2Br)c1OC |  | inconclusive [inhibitor, full curve, poor fit]
CN1CC(=O)NC1=NC(=O)C12CC3CC(CC(C3)C1)C2 |  | inconclusive [inhibitor, partial curve]
CCCCc1nnc(NC(=O)CSc2nc(=O)cc(N)n2-c2ccccc2)s1 |  | inconclusive [inhibitor, partial curve]
CCC(C)Nc1nc2c(c(=O)n(C)c(=O)n2C)n1Cc1cccc(C)c1 (stereo not drawn) | inactive: -13.5% | 
CCOCCCn1c(C)nc2c[n+](CC(=O)c3ccc4ccccc4c3)cc(Br)c21 | inactive: -4.56% | 
CON1C(=O)C(=O)N(OC)C(C)(C)C1(C)C |  | inconclusive [inhibitor, full curve, poor fit]
CCCNC(=O)OC[C@H]1O[C@H](CCO/N=C/[C@@H](OC)[C@H](C)/C=C/CC(=O)OC)C=C[C@@H]1Oc1ccc(OC)cc1 |  | inconclusive [inhibitor, full curve, poor fit]
O=C(Nc1ccc(F)cc1F)c1noc2c1CCc1ccccc1-2 | inactive: 16.6% | 
CCNC(=O)CN(c1ccc(F)cc1)S(=O)(=O)c1ccc2c(c1)OCCO2 | inactive: -3.52% | 
Cc1ccc(NC(=O)COC(=O)CCc2nc3ccccc3c(=O)[nH]2)cc1Cl |  | inconclusive [inhibitor, partial curve, poor fit]
O=C(COC(=O)c1ccc(O)cc1O)NC12CC3CC(CC(C3)C1)C2 | inactive: -5.3% | 
CC(C)CCNC(=O)NC(=O)CSc1ncccn1 |  | inconclusive [inhibitor, partial curve, poor fit]
CCOC(=O)C1=C(C)N(C)C(=S)NC1c1cccc(Cl)c1Cl (stereo not drawn) |  | inconclusive [inhibitor, single point]
CN(C)/C=N/c1nc2nccc(-c3ccc(F)cc3)n2n1 |  | inconclusive [inhibitor, full curve, poor fit]
